Source: a collection of fitness landscapes (doi:10.1016/j.celrep.2020.107928)
In all, about 81,000 sequences were measured (“one-hybrid fitness for binding NBS DNA”: median about -0.1, highest 2% from about 0.36 on). Some of the results follow.

B1: Caulobacter ParB omega fusion; a variant is named by its letters at X, in order, B8GW30 (parent)
chain: MESVVVGEPGMSEGRRGLGRGLSALLGEVDAAPAQAPGEQLGGSREAPIEILQRNPDQPRRTFREEDLEDLSNSIREKGVLQPILVRPSPDTAGEYQIVAGERAWRAAQRAGLKTVPIMVRELDDLAVLEIGIIENVQRADLNVLEEALSYKVLMEKFERTQENIAQTIGKSXSHVANXMRLLXLPDEVQSYLVSGELTAXHARAIAAAADPVALAKQIIEGGLSVRETEALARKAPNLSAGKSKGGRPPRVKDTDTQALESDLSSVLGLDVSIDHRGSTGTLTITYATLEQLDDLCNRLTRGI

Variants of: B1
Assay: one-hybrid fitness for binding NBS DNA (the Noc-binding site; scaled: cognate 1, non-cognate 0); higher = stronger binding
Conditions: with NBS DNA site
Summary of the method: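 Values were rescaled so that cognate is 1 and non-cognate is 0. Each is a fitness, the log change in a variant's read ratio to wild type from Illumina reads of plasmids before and after selection, with three replicate libraries pooled and variants under 10 reads dropped. Selection of the Caulobacter ParB libraries, four specificity codons randomised, used E. coli USO with a HIS3 reporter, site 19 bp from the promoter, on M9-minus-histidine with 0.1 mM IPTG and 5 mM 3-AT for 48 hours at 37°C.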

Variant	one-hybrid fitness for binding NBS DNA
PWSA	≤ 0.2
PCQT	≤ 0.2
FQSM	≤ 0.2
PDNF	≤ 0.2
LFAS	≤ 0.2
KPFG	≤ 0.2
NRQF	≤ 0.2
HTLT	≤ 0.2
PGGT	≤ 0.2
GTIS	≤ 0.2
TWFN	≤ 0.2
RKTQ	≤ 0.2
LRCT	≤ 0.2
GTNK	≤ 0.2
YIMW	≤ 0.2
PFDC	≤ 0.2
MAWT	≤ 0.2
KWNV	≤ 0.2
VAVW	≤ 0.2
CDDV	≤ 0.2
RNGI	≤ 0.2
NTHI	≤ 0.2
ESVF	≤ 0.2
NEHS	≤ 0.2
AKNE	≤ 0.2
QIII	≤ 0.2

Variant	one-hybrid fitness for binding NBS DNA
RCKV	0.23
SWLT	≤ 0.2
KSKV	≤ 0.2
FPAS	≤ 0.2
FVWR	≤ 0.2
HSLQ	≤ 0.2
QPSG	≤ 0.2
VPKR	≤ 0.2
EKCS	≤ 0.2
PLRY	≤ 0.2
CKWG	≤ 0.2
TNSC	≤ 0.2
ESLL	≤ 0.2
NAST	≤ 0.2
HRCV	≤ 0.2
NNMA	≤ 0.2
CAVD	≤ 0.2
QLHA	≤ 0.2
CLLW	≤ 0.2
SDNM	≤ 0.2
QYCA	0.242
YFQC	≤ 0.2
SPGC	≤ 0.2
QIHR	0.493
PTRR	0.227
DNLG	≤ 0.2

Variant	one-hybrid fitness for binding NBS DNA
SFSQ	≤ 0.2
PVDF	≤ 0.2
MMRT	≤ 0.2
NSNY	≤ 0.2
VMHT	≤ 0.2
WMSW	≤ 0.2
GACS	≤ 0.2
CHGT	≤ 0.2
GGQG	≤ 0.2
FLQV	≤ 0.2
ERRY	≤ 0.2
GRLF	≤ 0.2
RAYV	≤ 0.2
RRRE	0.219
NEES	≤ 0.2
VRHF	≤ 0.2
VYMG	≤ 0.2
RYVK	≤ 0.2
RKIE	≤ 0.2
MEPV	≤ 0.2
DSAY	≤ 0.2
CSIR	≤ 0.2
GSKQ	≤ 0.2
FDKG	≤ 0.2
